# Laboratory results as given in the supplement of paper PMC7826260.
# The other results are listed elsewhere or left out. The data describe in vitro nicking of single-stranded DNA by Rep domains (3 µM enzyme, 1 h, 37 °C); shown is the middle of each 90-letter strand. A value is the log2 ratio of uncut reads to the pool without enzyme; more negative means more cut, near 0 not cut, and no call is made. Counts are relative to all reads; where an enzyme cuts many sequences, the uncut ones exceed 0.
# Legend:
# Assay in all cases: uncleaved DNA left, log2 of reads against the no-enzyme library (log2 ratio); higher = less cleavage (more negative = more Rep cleavage of the k-mer); sequences stand for … in CTCGTCCG…ACCGGAGA
# [1] = tested on: T1, Rep nickase domain of Muscovy duck circovirus
# T1 sequence (residues 1-111 of Rep, tag left off): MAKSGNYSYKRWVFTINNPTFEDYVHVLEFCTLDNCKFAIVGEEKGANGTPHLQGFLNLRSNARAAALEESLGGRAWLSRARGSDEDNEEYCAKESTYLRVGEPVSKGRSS
# Procedure: (§1)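 A pool of 90-nt single-stranded DNAs with seven random bases just before the constant AC of the nick site (name = the seven bases) was cut by 3 µM recombinant His6-SUMO-tagged Rep nickase domain (300 nM DNA, 50 mM HEPES pH 8.0, 50 mM NaCl, 1 mM MnCl2, 1 h, 37 °C, three replicates). Uncut DNA was amplified and sequenced.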
# [2] = tested on: T2, Rep nickase domain of banana bunchy top virus
# T2 sequence (residues 1-94 of Rep, tag left off): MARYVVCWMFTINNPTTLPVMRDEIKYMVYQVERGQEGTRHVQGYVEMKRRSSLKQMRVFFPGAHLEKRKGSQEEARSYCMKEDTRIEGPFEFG
# Procedure: as §1
# [3] = tested on: T3, Rep nickase domain of cabbage leaf curl virus
# T3 sequence (residues 1-116 of Rep, tag left off): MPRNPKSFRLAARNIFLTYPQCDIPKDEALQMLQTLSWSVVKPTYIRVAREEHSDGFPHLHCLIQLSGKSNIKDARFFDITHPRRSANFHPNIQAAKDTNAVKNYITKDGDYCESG
# Procedure: as §1
# [4] = tested on: T4, Rep nickase domain of chickpea chlorotic dwarf virus
# T4 sequence (residues 1-124 of Rep, tag left off): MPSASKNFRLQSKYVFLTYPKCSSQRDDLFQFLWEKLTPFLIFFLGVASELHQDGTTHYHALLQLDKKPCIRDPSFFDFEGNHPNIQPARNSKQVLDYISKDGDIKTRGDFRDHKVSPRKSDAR
# Procedure: as §1
# [5] = tested on: T5, Rep nickase domain of faba bean necrotic yellows virus
# T5 sequence (residues 1-98 of Rep, tag left off): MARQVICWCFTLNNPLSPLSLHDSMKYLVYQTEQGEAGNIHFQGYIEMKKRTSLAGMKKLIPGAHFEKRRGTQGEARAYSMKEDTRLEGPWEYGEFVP
# Procedure: as §1
# [6] = tested on: T6, Rep nickase domain of maize striate mosaic virus
# T6 sequence (residues 1-117 of Rep, tag left off): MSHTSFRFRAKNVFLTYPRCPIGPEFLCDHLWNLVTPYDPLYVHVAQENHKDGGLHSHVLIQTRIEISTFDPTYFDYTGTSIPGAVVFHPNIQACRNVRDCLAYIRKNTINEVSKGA
# Procedure: as §1
# [7] = tested on: T7, Rep nickase domain of porcine circovirus 2
# T7 sequence (residues 2-116 of Rep, tag left off): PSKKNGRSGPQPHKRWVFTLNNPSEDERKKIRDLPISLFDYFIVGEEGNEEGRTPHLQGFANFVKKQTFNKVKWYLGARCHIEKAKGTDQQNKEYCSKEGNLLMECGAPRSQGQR
# Procedure: as §1
# [8] = tested on: T8, Rep nickase domain of tomato yellow leaf curl virus
# T8 sequence (residues 1-136 of Rep, tag left off): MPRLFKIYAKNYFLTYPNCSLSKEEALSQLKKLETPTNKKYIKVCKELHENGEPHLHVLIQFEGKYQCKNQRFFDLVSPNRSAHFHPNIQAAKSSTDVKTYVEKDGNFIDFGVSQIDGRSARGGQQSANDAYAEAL
# Procedure: as §1
# [9] = tested on: T9, Rep nickase domain of wheat dwarf virus
# T9 sequence (residues 1-137 of Rep, tag left off): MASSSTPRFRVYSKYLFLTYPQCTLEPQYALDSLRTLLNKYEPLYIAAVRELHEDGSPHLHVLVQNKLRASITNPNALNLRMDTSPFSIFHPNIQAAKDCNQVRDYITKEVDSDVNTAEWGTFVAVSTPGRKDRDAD
# Procedure: as §1
Sequence,uncleaved DNA left (log2) [1],uncleaved DNA left (log2) [2],uncleaved DNA left (log2) [3],uncleaved DNA left (log2) [4],uncleaved DNA left (log2) [5],uncleaved DNA left (log2) [6],uncleaved DNA left (log2) [7],uncleaved DNA left (log2) [8],uncleaved DNA left (log2) [9]
AGCAGAG,0.0512,-0.0171,-0.264,-0.107,0.0432,-0.538,0.0847,0.0396,0.0674
CGATCCT,-0.601,-0.168,-0.124,-1.3,-0.156,-0.254,-0.787,-0.0803,-0.112
CACCCAA,0.0257,-0.0695,-0.0793,-1.07,0.0577,-0.685,-0.402,-0.12,0.0423
TGAAACA,-0.0199,0.0493,0.386,-0.315,-0.0159,1.16,0.0165,0.0292,0.171
TTTGCTG,0.118,0.107,-0.0893,-0.0188,0.0924,-0.358,0.178,0.0839,0.0853
CGGCACC,0.0196,0.0062,0.0912,0.4,-0.233,0.321,-0.0827,-0.0284,0.115
TACTAGC,0.0995,-0.0669,-0.598,-0.821,0.0203,-1.19,-0.0367,0.0965,0.0356
CAGACCT,-0.0777,-0.205,-0.0621,-0.8,-0.324,0.718,-3.12,-0.0629,-0.104
CACTTCC,0.019,-0.0583,-0.127,-0.763,-0.0636,-0.424,-0.576,0.0304,-0.0147
AAGATAT,0.0208,-0.000671,0.32,1.07,-0.0751,1.52,-2.85,-0.0914,0.112
CATAGCT,-0.0126,-0.198,-0.698,-1.61,0.109,-1.2,0.0633,0.00304,-0.067
CCTATAT,-0.0726,-0.0622,0.137,-0.801,-0.00637,-0.744,-0.342,-0.0369,-0.0972
GTACCAT,-0.0111,0.105,0.351,0.986,-0.094,1.76,0.0213,0.105,0.164
TTTTTAG,-0.043,-0.159,-0.749,-0.659,-0.0862,-1.26,0.0346,-0.0221,-0.064
ATTACAT,-0.11,0.102,0.29,-1.04,0.059,0.146,-2.01,0.129,0.159
GGAGGCT,0.101,0.0466,0.871,1.56,0.0981,2.08,0.224,0.0975,0.101
TTGTCAG,0.0931,0.128,-0.635,-0.0178,0.142,-0.536,0.218,0.155,0.0354
TAGCTAT,0.0318,-0.00345,-0.272,-2.16,-0.0221,0.387,-3.19,-0.00519,-0.091
GGCCTGA,0.0308,0.0719,0.265,0.957,0.0202,1.67,0.0683,0.0503,0.0467
GGTGGCA,0.101,0.0383,0.824,1.72,0.0144,2.2,0.227,-0.00929,0.102

Sequence,uncleaved DNA left (log2) [1],uncleaved DNA left (log2) [2],uncleaved DNA left (log2) [3],uncleaved DNA left (log2) [4],uncleaved DNA left (log2) [5],uncleaved DNA left (log2) [6],uncleaved DNA left (log2) [7],uncleaved DNA left (log2) [8],uncleaved DNA left (log2) [9]
ACCCCTC,0.0385,-0.0237,-0.0538,-0.0235,0.0679,-0.23,0.057,-0.0563,0.0291
TACCTTC,0.0359,0.00185,-0.0832,-1.13,-0.01,-0.509,-0.779,0.0569,0.0789
AAGAACT,0.0302,-0.26,-0.124,-2.35,-0.0474,0.495,-3.7,-0.0618,0.0299
TTCGGAC,-0.129,-0.0287,0.244,1.14,-0.0878,1.18,0.0397,-0.017,-0.0172
GACCTTG,0.0533,0.0854,-0.111,-0.179,-0.0668,-0.552,0.0475,0.00421,0.0152
AGATAAT,-3.16,0.0839,-0.47,-1.42,-0.0225,0.187,-3.35,0.178,-0.659
TTGGTCA,0.046,0.0591,0.215,-0.0175,0.0043,0.311,0.0716,0.14,0.133
AATCTGT,0.0499,-0.0186,0.13,-0.147,0.088,0.726,-0.122,0.0597,0.127
TGATACG,0.0243,-0.0411,-0.927,-0.78,-0.000919,-1.2,-0.105,-0.149,-0.187
CGAGAAA,0.164,0.125,0.11,0.262,0.146,-0.136,0.0148,0.126,0.15
TTAGCTA,0.106,-0.0529,0.245,-0.415,-0.00162,0.122,-0.0104,-0.0237,0.0135
GTTTCTG,0.0875,-0.0646,0.106,0.51,-0.0313,0.763,0.0087,0.0154,-0.00522
GCTTGGG,-0.165,0.0236,-0.614,-0.542,-0.13,-0.773,0.137,0.0769,-0.127
ACCAACG,0.086,0.0403,-0.501,0.558,-0.0207,-0.281,0.267,-0.0223,-0.0238
TTCTATC,-0.0479,-0.0219,0.204,0.0558,-0.151,-0.333,0.0445,0.024,0.0772
CTATCAT,-0.0629,0.26,0.234,-0.327,0.0676,-0.189,-0.326,0.212,0.278
TGTCTGG,0.0538,-0.0351,0.296,0.526,0.0393,0.668,0.0222,-0.0648,0.0447
TCTTCTA,-0.0753,-0.144,0.027,-1.25,0.0389,-0.361,-0.3,-0.1,-0.0387
CACCAGA,-0.143,-0.139,-0.389,-1,-0.108,-1.15,-0.147,-0.133,-0.157
GAGTATG,0.066,-0.111,-0.111,0.242,0.0334,0.247,-0.293,0.161,0.0674

Sequence,uncleaved DNA left (log2) [1],uncleaved DNA left (log2) [2],uncleaved DNA left (log2) [3],uncleaved DNA left (log2) [4],uncleaved DNA left (log2) [5],uncleaved DNA left (log2) [6],uncleaved DNA left (log2) [7],uncleaved DNA left (log2) [8],uncleaved DNA left (log2) [9]
GTGAATT,0.0814,0.000283,0.361,0.907,0.000915,1.84,-0.182,0.164,0.135
GGCCCGT,0.0909,0.104,0.52,0.994,-0.0801,1.59,0.173,-0.0118,0.0472
CGGTCGT,0.0739,0.0226,-0.153,-0.0831,0.0156,-0.377,-0.053,0.121,0.0163
ATCCATC,0.0743,0.0175,0.0531,0.0999,0.106,-0.728,0.226,0.268,0.143
CCCTATA,0.021,-0.0572,-0.108,-1.86,-0.056,-0.779,-0.199,0.0435,-0.0585
GTGACCA,-0.0265,0.0644,0.341,1.06,-0.196,1.7,0.0523,0.083,0.153
GGCCTTC,-0.0521,0.0728,0.441,1.09,-0.0162,1.64,0.0735,0.153,0.0544
AAGCCAA,-0.0416,-0.0197,0.0996,-0.447,-0.0625,-0.196,-0.103,-0.0281,0.0859
AGCGTTG,-0.0984,0.0409,0.0159,0.611,-0.0188,1.56,-0.0789,0.0182,0.0762
GGCACGT,0.0965,0.0599,0.667,1.57,0.0299,1.94,0.198,0.0786,0.121
CCTGAAA,0.131,0.0312,0.0394,0.081,0.116,-0.493,0.0461,0.122,0.129
CTCCCCC,-0.141,-0.135,0.146,-0.0727,-0.0223,-0.00185,-0.263,-0.0744,0.0611
TGGGAGC,0.156,0.17,0.731,1.59,0.083,1.88,0.317,0.116,0.0882
CAATTAT,-1.96,-0.241,-4,-3.38,0.0256,-3.2,-3.7,-0.294,-3.98
CAGTGTT,-2.99,-3.1,-1.91,-2.28,-3.01,0.509,-3.55,-0.097,-0.527
GCACACT,0.00484,-0.0537,-0.224,-1.94,-0.0513,-0.147,-0.0414,-0.0587,0.00267
CCAAACG,0.00913,-0.0264,-0.957,-0.0597,-0.013,-1.03,0.0395,0.00229,-0.191
CTACGAA,0.0489,0.00709,0.0504,-1.09,0.113,-0.71,0.168,0.0267,-0.0529
GCCGTCG,-0.0107,-0.0187,-0.689,-0.0132,0.0565,-0.486,0.188,-0.129,-0.134
TAGAGCC,-0.0552,-0.0891,-0.0272,0.143,-0.0418,-0.531,-0.46,-0.0882,-0.127
